Read counts are not given, so values of variants with three or more changes are uncertain.
B1: LINE1-mini (parent)
chain: GGCAGAGCUCAACACAGCGUGGCAAAGUGGCUGUGGCUAGACUGCC

Variants of: B1
Experiment: self-cleavage, relative activity (ratio to wild type); higher = more cleavage; in vitro, sequencing; the parent is a self-cleaving ribozyme

Question: For G35A C42G C45G, which self-cleavage is on record?
Answer: 0.04

Question: Which self-cleavage does the source give for G35A G36A A41C G44U C46U here?
Answer: 0.06

Question: For G35A G36A C45A, which self-cleavage is on record?
Answer: 0.07

Question: For G35A G36C A39G, which self-cleavage is on record?
Answer: 0.07

Question: For G35A G36C C46A, which self-cleavage is on record?
Answer: 0.05

Question: With G35A G36U C42U C46G as the variant, how does the self-cleavage read?
Answer: 0.05

Question: With G35A G36U C46A as the variant, how does the self-cleavage read?
Answer: 0.01

Question: With G35A G36U U43G as the variant, how does the self-cleavage read?
Answer: 0.08

Question: For G35C A41G C42U, which self-cleavage is on record?
Answer: 0

Question: With G35C A41U C45A as the variant, how does the self-cleavage read?
Answer: 0.02

Question: With G35C C37A G40U as the variant, how does the self-cleavage read?
Answer: 0.04

Question: For G35C G36A C37U U43C, which self-cleavage is on record?
Answer: 0.2

Question: For G35C G36C U43A, which self-cleavage is on record?
Answer: 0.01

Question: Which self-cleavage does the source give for G35C G36U C42U here?
Answer: 0.01

Question: Which self-cleavage does the source give for G35C U38C C42G here?
Answer: 0.03

Question: With G35U A39C C42U as the variant, how does the self-cleavage read?
Answer: 0.14

Question: With G35U C37U C45A as the variant, how does the self-cleavage read?
Answer: 0.04

Question: Which self-cleavage does the source give for G35U C42U C46U here?
Answer: 0.06

Question: With G35U G36A U43A as the variant, how does the self-cleavage read?
Answer: 0.03

Question: For G35U G40U C46G, which self-cleavage is on record?
Answer: 0.09

Question: With G36A A41U C42A as the variant, how does the self-cleavage read?
Answer: 0.08

Question: Which self-cleavage does the source give for G36A A41U U43C here?
Answer: 0.24

Question: Which self-cleavage does the source give for G36A G40A C42A here?
Answer: 0.13

Question: Which self-cleavage does the source give for G36A U43A C45A here?
Answer: 0.08

Question: With G36C A39G C46U as the variant, how does the self-cleavage read?
Answer: 0.05

Question: With G36C A41U C42U as the variant, how does the self-cleavage read?
Answer: 0.13

Question: For G36C G40A C46A, which self-cleavage is on record?
Answer: 0.03

Question: With G36C U38C G40A A41U C46G as the variant, how does the self-cleavage read?
Answer: 0.01

Question: With G36U A39U C42U C45G as the variant, how does the self-cleavage read?
Answer: 0

Question: For G36U C37A A39C, which self-cleavage is on record?
Answer: 0.48

Question: Which self-cleavage does the source give for G36U C37A C46U here?
Answer: 0.12

Question: For G36U C37U U38G G40U, which self-cleavage is on record?
Answer: 0.02

Question: With G36U C42U G44U as the variant, how does the self-cleavage read?
Answer: 0.1

Question: Which self-cleavage does the source give for G36U G40A C46U here?
Answer: 0.09

Question: With G36U U38C U43G C45G as the variant, how does the self-cleavage read?
Answer: 0.03

Question: Which self-cleavage does the source give for C37A A41G G44U C46G here?
Answer: 0.02

Question: With C37A C42A G44A C46U as the variant, how does the self-cleavage read?
Answer: 0.16

Question: Which self-cleavage does the source give for C37A G40C C45U here?
Answer: 0.17

Question: Which self-cleavage does the source give for C37A U38A A39C here?
Answer: 0

Question: For C37A U38G A41C G44U, which self-cleavage is on record?
Answer: 0.02

Question: With C37G A41G C42U G44A as the variant, how does the self-cleavage read?
Answer: 0.04

Question: For C37U A41G C45G, which self-cleavage is on record?
Answer: 0.02

Question: With C37U C42G C45G as the variant, how does the self-cleavage read?
Answer: 0

Question: For C37U U43A G44A, which self-cleavage is on record?
Answer: 0.04

Question: For U38A A41G U43A, which self-cleavage is on record?
Answer: 0.05

Question: For U38A C42U G44A C46A, which self-cleavage is on record?
Answer: 0.03

Question: For U38A C45G C46G, which self-cleavage is on record?
Answer: 0.03

Question: Which self-cleavage does the source give for U38A C45G C46U here?
Answer: 0.08

Question: With U38A U43C C46U as the variant, how does the self-cleavage read?
Answer: 0.15

Question: With U38C A39C U43A as the variant, how does the self-cleavage read?
Answer: 0.03

Question: For U38C C42U U43C, which self-cleavage is on record?
Answer: 0.22

Question: With U38G C42U G44A as the variant, how does the self-cleavage read?
Answer: 0.03

Question: Which self-cleavage does the source give for U38G G40U C42U here?
Answer: 0.02

Question: With A39C A41C C46G as the variant, how does the self-cleavage read?
Answer: 0.05

Question: With A39C C42G C45U as the variant, how does the self-cleavage read?
Answer: 0.07

Question: Which self-cleavage does the source give for A39C G40C G44C here?
Answer: 0.13

Question: With A39C G44A C46U as the variant, how does the self-cleavage read?
Answer: 0.09

Question: For A39G U43C C45U C46U, which self-cleavage is on record?
Answer: 0.02

Question: Which self-cleavage does the source give for A39U A41G C42G here?
Answer: 0.02

Question: With A39U A41U C42A as the variant, how does the self-cleavage read?
Answer: 0.01

Question: For A39U G40U A41C, which self-cleavage is on record?
Answer: 0.14

Question: For G40A C42U C45U, which self-cleavage is on record?
Answer: 0.16

Question: For G40A C45A C46U, which self-cleavage is on record?
Answer: 0.13

Question: For G40U C45U C46U, which self-cleavage is on record?
Answer: 0.19

Question: With A41C C42U G44C as the variant, how does the self-cleavage read?
Answer: 0.03

Question: For A41G G44C C45G, which self-cleavage is on record?
Answer: 0.01

Question: With A41G U43A G44U as the variant, how does the self-cleavage read?
Answer: 0.07

Question: With C42A U43A G44C as the variant, how does the self-cleavage read?
Answer: 0.03

Question: With C42G G44A C45G as the variant, how does the self-cleavage read?
Answer: 0.07

Question: With C42U G44C C45U as the variant, how does the self-cleavage read?
Answer: 0.13

Question: For C42U G44U C45U, which self-cleavage is on record?
Answer: 0.04
